In all, about 150,000 compounds went through this assay and about 540 (0.36%) showed an effect of 50% or more. This is one part of the list.
tested on: Plasmodium falciparum; experiment: Primary screen in NF54 nanoGlo assay, in single point, at 2uM, 72h; a lower Z score goes with more inhibition; assay type: functional, Erythrocyte; settings: timepoint 72 hour

SMILES	% Inhibition	Z score
N#CC1CCN(C(=O)CCc2ccco2)CC1	2%	-0.23
CN(C)c1ccc(C[C@@H]2C(=O)N(C)c3ccc(Br)cc32)cc1	9%	-0.79
O=C(c1ccncc1F)N1CC(CN2C(=O)CCC2=O)C1	5%	-0.73
Cc1cccc(NC2CCN(S(=O)(=O)N(C)C(C)C)CC2)n1	-3%	0.43
Cc1cccc2c1NC(c1ccc(Cl)cc1)CC2C (stereo not given)	3%	-0.4
Cc1nn(C)c(Cl)c1-c1noc(C2CC3CCC2O3)n1 (stereo not given)	-2%	0.25
CN(Cc1cnccn1)C[C@@H](C#N)CCC#N	-4%	0.51
CCc1nc(CN(C)C(=O)c2ccc3c(c2)OCC(=O)N3)cs1	-18%	1.61
COC(=O)c1ccccc1NC(=O)c1ccc(-n2nnc3cccnc32)c(C)c1	4%	-0.49
COc1ccc(C2(NC[C@H]3CCCC(F)(F)C3)CCOCC2)cc1F	1%	-0.26
COc1cccc(CN(C)c2cncc(C(=O)N(C)C)n2)c1	-1%	0.11
COc1ccccc1CC(C)(C)NC(=O)Cc1csc(C)n1	-5%	0.88
Cc1cc(C(=O)N2CC[C@@](O)(C3CCOCC3)[C@H](C)C2)c(C)o1	-7%	1.03
O=C(CCC1CCCC1)N1CC[C@H](n2cc(COc3cnccn3)nn2)C1	-11%	1.55
CC(C)c1nccc(CN2CCOC[C@@H]2CC(=O)NC2CC=CC2)n1	5%	-0.7
Cc1cccc(CS(=O)(=O)N2CCC(C(=O)N3CCCC3)CC2)c1	-4%	0.76
Cc1ccc(NC(=O)NC(=O)[C@H](C)NCC2(N3CCOCC3)CCCCC2)c(C)c1	-11%	2.1
CN1CCc2c(C#N)c(N3CCOCC3)nc(N3CCCCC3)c2C1	-5%	0.92
O=C(N[C@H]1COc2cc(F)c(Br)cc21)c1ncoc1C1CC1	-10%	1.98
Cc1noc([C@H]2CCCN(C(=O)c3oc4c(Cl)cccc4c3C)C2)n1	-14%	1.26
FC(F)(F)c1cccc(NCn2nc(-c3ccccc3)oc2=S)c1	-4%	0.63
CC(C)NC(=O)C[C@H](C)NC(=O)c1c(F)cccc1Br	-15%	1.23
CCOC1CN(C(=O)c2cccc3sc(C(F)(F)F)nc23)C1	-2%	0.3
O=S(=O)(NC[C@]1(O)CCCc2occc21)c1ccc(-n2cccn2)cc1	-3%	0.39
COc1ccc(N2C(=O)C(=O)N(CC(=O)c3cc(C)n(-c4ccc5c(c4)OCCO5)c3C)C2=O)cc1	-45%	5.31
Cc1csc(CNS(=O)(=O)c2cccc3nn(C)nc23)n1	-19%	2.9
Cn1nc(CN2CCCc3c2cccc3C(F)(F)F)[nH]c1=O	-1%	0.1
CO[C@@H](C)c1ccc(-c2ncnc3sc(C)cc23)cc1	-11%	2.04

SMILES	% Inhibition	Z score
O=C1[C@@H]2CCN(S(=O)(=O)c3ccccc3F)CCN2C(=O)CN1Cc1ccccc1	-10%	1.38
O=C(NC1CC1)c1cn2c3c(cc(Br)cc3c1=O)CC2	6%	-0.75
C[C@]1(Cc2cccc(F)c2)CCCN1C(=O)c1cccnn1	2%	-0.5
O=S(=O)(NCC1(c2cccs2)CCCCC1)C1CCOCC1	-14%	1.6
CC1=NN(c2ccc(Cl)cc2)C(=O)C12Cc1ccc(Cl)cc1N1CCOCC12 (stereo not given)	1%	-0.19
CCn1nnc2cc(C(=O)N3CCC(C(=O)Nc4ccc(Br)c(C)c4)CC3)ccc21	0%	-0.02
O=C(Nc1cccc(F)c1)[C@H]1CNCCO1	-3%	0.25
O=C(NC1CC2C(=O)Nc3ccccc3N2C1)c1ccc2nsnc2c1 (stereo not given)	-7%	0.88
O=C(CS(=O)(=O)c1cccs1)NCCc1ccccc1	-9%	1.64
CN(Cc1ccco1)C(=O)NC1CCCC1	4%	-0.66
O=C1C[C@@H](C(=O)Nc2ccc3[nH]ncc3c2)CCN1	2%	-0.33
CCc1ccccc1Nc1c2c(nc3ccccc13)CCCC2	9%	-1.19
CCc1nc(-c2ccc(C(=O)NC3CCCCC3)cc2)no1	-3%	0.28
CC(O)(CN1CCCC1c1ccco1)c1ccc(S(C)(=O)=O)cc1 (stereo not given)	-3%	0.32
CCN1CCN(C(=O)c2n[nH]c3c2CN(C(=O)Cc2cccc(C)c2)CC3)CC1	11%	-1.26
Cc1cc(C(F)F)oc1C(=O)Nc1nnnn1C1CC1	3%	-0.56
O=C(c1cncs1)N(Cc1ccc2c(c1)OCO2)Cc1cc2cc3c(cc2nc1N1CCC(O)CC1)CCC3	-17%	2.16
COCC(=O)N[C@@H]1CN(Cc2nc(C(C)C)ns2)C[C@H]1c1ccnn1C	-3%	0.61
O=C(CC1CCCC1)NCc1nnc2ccccn12	15%	-1.95
CC(C)C(=O)Nc1ccc(S(=O)(=O)NCC2CCN(c3nccnc3C#N)CC2)cc1	-19%	3.87
CC1(C(=O)Nc2n[nH]cc2Br)CC2CCC1O2 (stereo not given)	4%	-0.56
C[C@@H](CC(F)F)C(=O)N1CCC(C)(C)C1	-4%	0.48
Cc1cc(Cl)ccc1CNC1(CO)CC1	-4%	0.42
Cc1ccc(S(=O)(=O)NCC2CCN(c3nc4ccccc4o3)CC2)cc1C	-9%	1.41
CCOc1ccnc(NCC2(COc3ccccc3)CC2)n1	-2%	0.46
O=C(CCNS(=O)(=O)c1ccc(Cl)cc1)N1CCCC1	0%	0.06
COc1cccc2nc(C[C@H]3CN(C(=O)c4cccc(F)c4)CC[C@H]3CC(=O)O)[nH]c12	0%	0.07

Reference: ChEMBL document CHEMBL4888484, “Replenishing the malaria drug discovery pipeline: Screening and hit evaluation of the MMV Hit Generation Library 1 (HGL1) against asexual blood stage Plasmodium falciparum ,using a nano luciferase reporter read-out” (2022)
